Assay results reported in the supplement of paper PMC10126150.
Values marked as one replicate rest on one cluster of the flow cell; about a third of the high ones do not repeat.

System: ATP
Assay: switch fluorescence ratio, 500 uM ATP over buffer (Cy3 cluster intensity, sum of 5 cycles each) (fold (ratio)); higher = stronger signal-on switching upon ATP binding; sequences stand for … in TCGTCGGCAGCGTCAGATGTGTATAAGAGACAGTTTTTTTTTTTTTTTTTTTTTTTTT…TC
Conditions: aptamer strand: ATP DNA aptamer (quencher-CACCTGGGGGAGTATTGCGGAGGAAGG + anchor), 100 nM annealed; ATP concentration: 500 uM; one replicate
Outline: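 Exposure to 500 uM ATP lasted 15 min at 22 °C before imaging, and a selection-buffer image was taken beforehand, for Cy3-labelled switching-strand clusters on a modified Illumina MiSeq flow-cell annealed to 100 nM quencher-labelled ATP aptamer. Five buffer/ATP cycles were run with NaOH stripping and re-annealing between them. The fluorescence ratio per cluster is summed target-cycle over summed buffer-cycle Cy3 intensity, averaged per switch-domain sequence. Clusters outside 100-1000 RFU were excluded.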

Row | Sequence | switch fluorescence ratio
1 | TCAGTTGGA | 1.02
2 | GGGTGTGCCC | 0.973
3 | TGCCGTGATA | 1.23
4 | TCGCACTCGC | 1.2
5 | AATATTCCCA | 1.05
6 | TGAGTTGGCC | 0.979
7 | TTATCCCTA | 0.975
8 | ATCCATTTTC | 0.985
9 | TTAGTGATCA | 1.08
10 | TTTGCACTCC | 1.44
11 | CATAATACTT | 1
12 | ATTTTGTACG | 1.05
13 | TATTAGAC | 1.07
14 | CGGCACAAGT | 1
15 | GTATGCGCGG | 0.957
16 | AGGAGCATCA | 0.979
17 | GTTGAGGTCT | 1.01
18 | CGTCAATGCA | 1.18
19 | TTAGGTTTCG | 0.962
20 | AGATTCGGTA | 0.988
21 | AGCGTTCCAA | 0.996
22 | ACGGAGTATC | 1.11
23 | GCATCGCGGT | 0.977
24 | TTCACTTTCA | 1.03
25 | CATCGTAGGT | 1.02
26 | TGCACCGCAT | 2.28

Row | Sequence | switch fluorescence ratio
27 | TACGTGGGAG | 1.02
28 | CCAAGTCGGG | 0.956
29 | CTTGTGGGCA | 0.996
30 | CGGGACCTGC | 0.996
31 | AGGTCACAGG | 1.09
32 | GGCGCGAAGG | 0.976
33 | GCTCATGGGG | 0.986
34 | CTTATGGTGG | 1.04
35 | CTGCCTGCGG | 0.992
36 | TCGGGCTAGT | 0.93
37 | CGGGAAGCT | 1.02
38 | TTGGTGACGA | 1.01
39 | ATACTGTCAA | 1.02
40 | CTAGTAATCG | 1.02
41 | GTCCGGGAGT | 0.992
42 | ATACTAACAA | 1.08
43 | TCGCTTTACG | 1.21
44 | TTGATGATG | 0.974
45 | TCACGCATTT | 1.08
46 | AGTATAAGGA | 0.971
47 | CGATTCAGCG | 1.01
48 | CCCGCCGGCA | 1.17
49 | AACCCGGGTT | 1.01
50 | CACCTTTTTT | 1.01
51 | ACCTTTGCGG | 1.05
52 | AGAAGTTTT | 0.999

Row | Sequence | switch fluorescence ratio
53 | GTAAAAGCCG | 0.993
54 | GGGTGTAACG | 0.972
55 | ATGCAGGCCC | 1.01
56 | GTTGTGAGCA | 0.969
57 | TTGATAGA | 1.03
58 | TATACCGGGT | 0.997
59 | GCCTGAATAT | 1.02
60 | CAATGGACCC | 1.04
61 | TTTGCTTAAG | 0.99
62 | AGTTGAACCG | 1.02
63 | AATGTGGTGC | 0.99
64 | TTGGGTTA | 1.07
65 | TTAACCGGTG | 0.994
66 | AGCTGTCTGT | 1
67 | TATTTCCAGA | 0.992
68 | GTTACATTGC | 1.07
69 | TGCGTTTCCG | 1
70 | GGCCGCGCCT | 1.11
71 | CTCGGTTACG | 1.01
72 | TATAACAT | 1.06
73 | CAGGGTCCCC | 0.962
74 | ATGAAGAGG | 0.97
75 | TGGGTCTACG | 1.01
76 | CACTGTGGCT | 0.999
77 | GAAGTCATTG | 1
78 | TGAGCAACGG | 0.957

Row | Sequence | switch fluorescence ratio
79 | GCTATGAGGT | 1.02
80 | GGTGGCGATG | 0.983
81 | CCACTTTTGG | 1.01
82 | AGGTGCTCTG | 1.04
83 | GCACGATTCG | 1.04
84 | CAGTCGCGCC | 1.05
85 | AGTTCCAAGG | 0.99
86 | TAATGGTCTC | 1
87 | GATCAATAC | 3.51
88 | TTTCTGCGGT | 1.48
89 | CGGGAGGATA | 1
90 | ACCGAATCAA | 1.31
91 | TAGCTGTATG | 0.991
92 | GGGCGCTAGC | 0.983
93 | ACACGGCGCG | 0.984
94 | TCCACGATCA | 1.12
95 | GAGTGATCAA | 0.999
96 | AACTCACAAC | 1.18
97 | CGTAATTAAG | 0.98
98 | GCCGGACGA | 1
99 | TGATCTTCAG | 1.03
100 | GCGGAAATGA | 1.01
101 | TAATTGCGGA | 1
102 | CCGGGTATCT | 1.13
103 | TGCCATTTTG | 0.962
104 | ATTTGTTAAA | 0.979

Row | Sequence | switch fluorescence ratio
105 | GGGAGTGTCT | 1.01
106 | GTGGTCCGT | 0.941
107 | CCCAGCCATC | 2.27
108 | ATTTAGAGAT | 1.03
109 | TAGAGCTCCA | 1.02
110 | AGAACACTTT | 1.03
111 | CATTTAGTCG | 0.977
112 | AACCACCATC | 1.09
113 | GGCAGATACA | 1.04
114 | CCCGGATTAT | 1.08
115 | CGCAGTCCTT | 1.2
116 | GGTGGTCG | 1.15
117 | AGTTTGTATA | 1.02
118 | CCAGGCAACT | 1.26
119 | AAAAAGCGTT | 0.986
120 | TTTGCACACG | 1.04
121 | TTTTGCATAC | 3.48
122 | CAGGGCGAGC | 1.03
123 | ATGTGGTGTA | 0.964
124 | GTTGTGGGAT | 0.995
125 | CCAGGTACGA | 1.15
126 | GGTGATATAC | 1.08
127 | CATCTGAACG | 1.05
128 | TGTTAGCGAA | 1.01
129 | AAGAGAATTA | 1.02
130 | GGTTTCGCTG | 1.03

Row | Sequence | switch fluorescence ratio
131 | ATAAATGTGG | 1.01
132 | TGGAGTACCT | 1.84
133 | GTTGTGGGA | 1.05
134 | TATATTTAGG | 1.02
135 | TTATCACTAA | 1.03
136 | GTGCGTCGTC | 1
137 | GGGACCAAAC | 1.01
138 | GGACTTAGTC | 1
139 | GTTCCAGTAC | 1.25
140 | GCGCTAGGCA | 1.01
141 | GCTGGTAAGG | 0.988
142 | TGGGAAGCGG | 0.989
143 | ATCGGCTAGG | 0.983
144 | TAACCTGAAA | 1.13
145 | CCGTACTGCT | 1.03
146 | GGACGAGAAC | 1.09
147 | TGGGGTCTTC | 0.973
148 | ATCGTTTAC | 0.983
149 | CAGGTCAT | 0.967
150 | AATATGCGCA | 0.985
151 | CTGGGTTGTG | 0.946
152 | GACGAGCGAG | 1.05
153 | TATGTTGTTC | 0.985
154 | CCAACTAGAC | 1.67
155 | ACAAGAAGTC | 1.03
156 | CATACCAGAG | 1.05

Row | Sequence | switch fluorescence ratio
157 | TTAGCTCAGG | 1.07
158 | AGCACGGAGG | 0.974
159 | TACATCGGTA | 0.989
160 | CACTACATTG | 1.04
161 | TGATAGGGCA | 1.04
162 | CAATGCCTAT | 1.03
163 | ATGACGGCGG | 0.978
164 | CGGATAGCCA | 1
165 | CCACTAGCTA | 1.59
166 | CTCATAGGGC | 1.01
167 | GACTATGCCA | 1.01
168 | GTGATGAAGT | 1.02
169 | TTATAATAAT | 1.04
170 | GTAATTTCAA | 1.04
171 | AACTCGTAAA | 0.982
172 | GACACTCCCC | 2.62
173 | TCGCACTTGA | 1.06
174 | GCGTACGGTC | 1.18
175 | AAACACGCA | 1.15
176 | TAAGTCTCGT | 1
177 | CGTAACCGGT | 0.998
178 | TACCGGGTCG | 1.02
179 | CCCTCGTTTT | 1.08
180 | CGCGGGGAAA | 1.03
181 | CGGGAGGCTC | 1.02
182 | GTCCTCGAAT | 1.06

Row | Sequence | switch fluorescence ratio
183 | CCGGTAGACC | 1.09
184 | GATGGCAAGA | 1.14
185 | GGGCTACGCG | 1.02
186 | ATTTGCGATC | 1.18
187 | CGACAGGTGA | 1.02
188 | AATCAAGGTG | 1.42
189 | TGCAGGCTGA | 0.944
190 | TGTCCCGGAT | 1.06
191 | CGGCGTAGGT | 0.978
192 | TGAAAATGGG | 0.983
193 | TAGTTATAAC | 1.01
194 | AATCCTTTCT | 1.27
195 | GCACCCCACA | 1.24
196 | GGTTAAATGT | 0.974
197 | GCATCAGGG | 1.04
198 | CGTTGTTGGG | 0.996
199 | GTCCCGGCTC | 1.03
200 | AGGCTCGAAT | 1.01
201 | TACGCTAAAA | 1.06
